We go through 9 compounds from the supplement of paper PMC4604168 (melanoma cell lines).

Test systems include MZ2-MEL; MeWo; RPMI7951; RVH-421; SkMel28; SkMel2; SkMel30; SkMel5; UACC257; UACC62; WM115; WM1716; WM1745; WM3526; WM3619; WM451Lu.
Holding throughout (assay): cell count relative to DMSO control; melanoma cells; higher = more viable cells
Conditions in all cases: library dose: low library concentration; 72 h

The list shows a part of the results. Repeats are few or missing, and single values can be far off.
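Note: cell number obtained by counting DAPI-stained nuclei in high-throughput microscope images with image analysis software, screen run in 1,536-well plates.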

As to `Nc1ncn([C@H]2C[C@H](O)[C@@H](CO)O2)c(=O)n1` [decitabine] + CCc1ccc(CCOc2ccc(CC3SC(=O)NC3=O)cc2)nc1 [pioglitazone] (first compound 0.1 µM, partner dose 2 µM), the cell count with MZ2-MEL was determined as 84.2%; with MeWo, 88.7%; in the experiment with RPMI7951, 83.6%; with RVH-421, 105%; with SkMel28, 67.1%; in the experiment on SkMel2 it was 98.5%. The cell count in the experiment on SkMel30 turned out to be 87%; in the experiment on SkMel5, 98%; in the experiment with UACC257, 90.8%; in the experiment with UACC62, 64.6%; in the experiment on WM115, 70.2%; in the experiment on WM1716, 83.5%. Moreover, the cell count in the experiment on WM1745 was determined as 69.1%; in the experiment on WM3526, 110%; in the experiment on WM3619 it was 98.5%; in the experiment on WM451Lu, 88%.
As to `CC(=O)O[C@@]12CO[C@@H]1C[C@H](O)[C@@]1(C)C(=O)[C@H](O)C3=C(C)[C@@H](OC(=O)[C@H](O)[C@@H](NC(=O)OC(C)(C)C)c4ccccc4)C[C@@](O)([C@@H](OC(=O)c4ccccc4)[C@H]21)C3(C)C` [Docetaxel] + OCCn1cc(-c2cnc3nnn(Cc4ccc5ncccc5c4)c3n2)cn1 [PF04217903] (first compound 0.0001 µM, partner dose 1 µM), the cell count with MZ2-MEL worked out at 51.7%; with MeWo it was 41.8%; in the experiment on RPMI7951, 31.5%; in the experiment with RVH-421 it was 70.6%; in the experiment with SkMel28, 27.5%; in the experiment with SkMel2, 37.3%. Further, the cell count in the experiment with SkMel30 was determined as 34.6%; in the experiment with SkMel5, 72.8%; with UACC257, 41.1%; in the experiment on UACC62, 44.2%; in the experiment with WM115, 50.3%; in the experiment on WM1716, 31.8%. In addition, the cell count turned out to be 53.6% in the experiment with WM1745, 42.5% with WM3526, 66.2% in the experiment with WM3619 and 52.2% in the experiment with WM451Lu.
Take `Nc1nc(F)nc2c1ncn2[C@@H]1O[C@H](CO)[C@@H](O)[C@@H]1O` [fludarabine] + O=C(CCCCCCC(=O)Nc1ccccc1)NO [vorinostat] (first compound 0.2 µM, partner dose 0.08 µM): the cell count in the experiment on MZ2-MEL was determined as 100%; in the experiment with MeWo, 29.1%; in the experiment on RPMI7951, 103%; in the experiment on RVH-421, 101%; with SkMel28, 55.9%; in the experiment on SkMel2, 5.66%. The cell count with SkMel30 turned out to be 14.2%; with SkMel5 it was 39.6%; in the experiment on UACC257, 73.1%; in the experiment with UACC62 it was 83%; in the experiment on WM115, 93.2%; with WM1716 it was 118%. Besides, the cell count in the experiment on WM1745 worked out at 96.7%; in the experiment on WM3526, 22.7%; in the experiment with WM3619, 89.5%; with WM451Lu, 43.6%.
`Nc1nc(F)nc2c1ncn2[C@@H]1O[C@H](CO)[C@@H](O)[C@@H]1O` [fludarabine] + Cc1cc([N+](=O)[O-])ccc1NS(=O)(=O)c1cc(Cl)ccc1Cl [FH535] (first compound 0.2 µM, partner dose 1 µM): the cell count came to 99.8% with MZ2-MEL; 37.2% in the experiment with MeWo; 95.6% in the experiment on RPMI7951; 98.5% with RVH-421; 58.1% in the experiment with SkMel28; 4.28% with SkMel2. The cell count in the experiment on SkMel30 came out at 12.3%; in the experiment on SkMel5, 67.8%; in the experiment with UACC257, 97.2%; in the experiment with UACC62 it was 76.9%; with WM115, 82.6%; in the experiment on WM1716 it was 94.5%. For the same compound, the cell count amounted to 89.2% with WM1745, 18.7% in the experiment on WM3526, 88.8% in the experiment on WM3619 and 36.3% in the experiment on WM451Lu.
As to `CC(=O)c1c(C)c2cnc(Nc3ccc(N4CCNCC4)cn3)nc2n(C2CCCC2)c1=O` [palbociclib] + CN(C)S(=O)(=O)c1ccc2c(c1)/C(=C/c1cc3c([nH]1)CCCC3)C(=O)N2 [SU6656] (first compound 0.04 µM, partner dose 0.4 µM), the cell count in the experiment with MZ2-MEL came out at 67.7%; in the experiment with MeWo it was 67.7%; in the experiment with RPMI7951, 93.1%; in the experiment on RVH-421, 74.2%; in the experiment on SkMel28, 71.7%; with SkMel2, 70.2%. For the same compound, the cell count with SkMel30 was 60.4%; with SkMel5, 72.7%; in the experiment with UACC257 it was 51.3%; in the experiment on UACC62 it was 71.1%; in the experiment with WM115, 70.7%; in the experiment with WM1716 it was 62%. Besides, the cell count in the experiment with WM1745 was 80.9%; in the experiment on WM3526, 63.9%; in the experiment on WM3619, 82.3%; in the experiment on WM451Lu, 70.5%.
As to `Nc1nc(F)nc2c1ncn2[C@@H]1O[C@H](CO)[C@@H](O)[C@@H]1O` [fludarabine] + CCCCCCCCCCCC1=C(O)C(=O)C=C(O)C1=O [Embelin] (first compound 0.2 µM, partner dose 1.2 µM), the cell count was determined as 104% in the experiment with MZ2-MEL; 32.2% with MeWo; 69.8% with RPMI7951; 83.6% in the experiment on RVH-421; 79.5% with SkMel28; 3.76% in the experiment with SkMel2. Besides, the cell count came to 14.8% with SkMel30; 56.3% with SkMel5; 70.3% in the experiment with UACC257; 90.8% in the experiment with UACC62; 97.5% with WM115; 114% in the experiment on WM1716. For the same compound, the cell count in the experiment on WM1745 was 118%; with WM3526, 24.5%; with WM3619, 104%; in the experiment with WM451Lu, 46.9%.
As for `Nc1nc(F)nc2c1ncn2[C@@H]1O[C@H](CO)[C@@H](O)[C@@H]1O` [fludarabine] + C=CCn1c(=O)c2cnc(Nc3ccc(N4CCN(C)CC4)cc3)nc2n1-c1cccc(C(C)(C)O)n1 [MK1775] (first compound 0.2 µM, partner dose 0.02 µM), the cell count came to 95.4% with MZ2-MEL; 26.8% with MeWo; 101% with RPMI7951; 98.4% with RVH-421; 57.1% in the experiment on SkMel28; 4.77% in the experiment with SkMel2. Moreover, the cell count with SkMel30 was 15.9%; with SkMel5 it was 47%; with UACC257 it was 70.7%; with UACC62, 77.3%; in the experiment on WM115, 73.9%; in the experiment with WM1716, 86.2%. The cell count in the experiment with WM1745 is 86.1%; in the experiment with WM3526 it was 23.5%; in the experiment with WM3619 it was 79%; with WM451Lu, 42.8%.
For the compound `CC(=O)c1c(C)c2cnc(Nc3ccc(N4CCNCC4)cn3)nc2n(C2CCCC2)c1=O` [palbociclib] + COC(=O)c1sccc1S(=O)(=O)Nc1ccc(Nc2ccccc2)cc1OC [GSK0660] (first compound 0.04 µM, partner dose 1 µM), the cell count worked out at 77.6% in the experiment on MZ2-MEL; 77% in the experiment with MeWo; 72.1% in the experiment with RPMI7951; 89.3% in the experiment with RVH-421; 80.9% with SkMel28; 79.8% in the experiment on SkMel2. For the same compound, the cell count was 62.4% in the experiment on SkMel30; 68.7% with SkMel5; 91.8% with UACC257; 78.4% in the experiment with UACC62; 65.3% with WM115; 65.7% with WM1716. The cell count amounted to 81.6% in the experiment on WM1745, 64% in the experiment with WM3526, 83.4% with WM3619 and 51.9% in the experiment with WM451Lu.
For the compound `CC(=O)O[C@@]12CO[C@@H]1C[C@H](O)[C@@]1(C)C(=O)[C@H](O)C3=C(C)[C@@H](OC(=O)[C@H](O)[C@@H](NC(=O)OC(C)(C)C)c4ccccc4)C[C@@](O)([C@@H](OC(=O)c4ccccc4)[C@H]21)C3(C)C` [Docetaxel] + O=C(Nc1ccccc1)c1cc([N+](=O)[O-])ccc1Cl [GW9662] (first compound 0.0001 µM, partner dose 2 µM), the cell count in the experiment on MZ2-MEL is 45.8%; in the experiment with MeWo, 48.7%; with RPMI7951 it was 35.9%; in the experiment on RVH-421, 62.7%; in the experiment on SkMel28, 50.6%; in the experiment on SkMel2 it was 40.7%. The cell count in the experiment with SkMel30 worked out at 41.6%; in the experiment on SkMel5, 83%; with UACC257, 54.9%; in the experiment on UACC62, 40.5%; with WM115 it was 61.8%; in the experiment on WM1716, 42.3%. In addition, the cell count with WM1745 came out at 55.2%; in the experiment with WM3526, 45.4%; in the experiment on WM3619, 53.7%; in the experiment with WM451Lu, 50.6%.
